The values that follow come from PMC3000556 (FEBS letters, 2010).

The chains are these.
B2: Full-length (576 aa) human coilin fused to GST (natural protein)
chain: MAASETVRLRLQFDYPPPATPHCTAFWLLVDLNRCRVVTDLISLIRQRFGFSSGAFLGLYLEGGLLPPAESARLVRDNDCLRVKLEERGVAENSVVISNGDINLSLRKAKKRAFQLEEGEETEPDCKYSKKHWKSRENNNNNEKVLDLEPKAVTDQTVSKKNKRKNKATCGTVGDDNEEAKRKSPKKKEKCEYKKKAKNPKSPKVQAVKDWANQRCSSPKGSARNSLVKAKRKGSVSVCSKESPSSSSESESCDESISDGPSKVTLEARNSSEKLPTELSKEEPSTKNTTADKLAIKLGFSLTPSKGKTSGTTSSSSDSSAESDDQCLMSSSTPECAAGFLKTVGLFAGRGRPGPGLSSQT[letters of about 200 residues left out]

The target in assay [1] is B2. Description: pull-down.
The target of assay [2] is Soluble full length T7-tagged Ku80 (N-732aa) (UniProt P13010). Description: pull-down.

B1: N-terminal T7-tagged Ku80 (N-565aa) fragment (domain or fragment)
chain: not shown
On to B1, for which the binding result in assay [1] is “binds”. Regarding B2, in assay [2], the binding result was “binds”.
